# In PubChem BioAssay AID588591 (National Center for Advancing Translational Sciences (NCATS), 2011):
# Out of some 390,000 compounds screened, about 4,700 (1.2%) were called active. The inconclusive results got no clear call from the source; some entries with a clear call stand among them for comparison. Calls follow the shape of the dose curve; as a rule, active = well fitted inhibition curve with a large enough effect; inconclusive = small, poorly fitted or top-dose-only effect, or another doubt; inactive = no such curve, though single readings can be large or run the other way. Potencies of inconclusive entries are doubtful fits and often do not repeat.
# Molecular target: DNA polymerase eta (Homo sapiens) (UniProt Q9Y253)
# Test: qHTS for Inhibitors of Polymerase Eta
# Conditions: recombinant Pol eta, fluorescent DNA replication assay; series mostly up to 114 µM; activity change, negative = inhibition: at the top concentration
# Summary of the method: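 Fluorescent replication assay: 50 nM final substrate added after a 15 min room-temperature compound preincubation with 10 nM enzyme. Signal taken at 0 min and again at 10 min.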
# % is scaled to controls: 0 for no effect and ±100 for the full control effect; potency is read from the fitted curve at half-maximal effect; tags tell the direction and shape of the fitted curve.
# UniProt Q9Y253, sequence (Q9Y253 whole entry, looked up): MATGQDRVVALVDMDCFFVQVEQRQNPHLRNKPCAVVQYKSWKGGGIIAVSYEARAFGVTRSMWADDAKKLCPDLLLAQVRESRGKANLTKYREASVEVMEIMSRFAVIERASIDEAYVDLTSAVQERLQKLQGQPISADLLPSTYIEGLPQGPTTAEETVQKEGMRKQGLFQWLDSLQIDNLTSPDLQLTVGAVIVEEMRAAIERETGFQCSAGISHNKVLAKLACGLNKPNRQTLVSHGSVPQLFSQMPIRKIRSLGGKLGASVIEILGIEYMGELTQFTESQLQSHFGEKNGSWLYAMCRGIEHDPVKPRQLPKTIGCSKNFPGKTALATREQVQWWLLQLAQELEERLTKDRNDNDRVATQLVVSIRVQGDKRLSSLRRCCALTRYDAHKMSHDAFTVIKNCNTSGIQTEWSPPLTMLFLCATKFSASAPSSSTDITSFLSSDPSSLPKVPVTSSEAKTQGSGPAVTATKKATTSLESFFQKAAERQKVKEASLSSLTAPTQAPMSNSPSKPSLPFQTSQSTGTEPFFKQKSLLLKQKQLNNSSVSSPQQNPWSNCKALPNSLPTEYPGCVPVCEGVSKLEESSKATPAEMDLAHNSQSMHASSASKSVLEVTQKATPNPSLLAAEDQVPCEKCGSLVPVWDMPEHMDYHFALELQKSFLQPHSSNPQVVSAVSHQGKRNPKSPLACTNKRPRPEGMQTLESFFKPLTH
SMILES,Potency,"activity change, negative = inhibition"
COc1cc(NC(=O)CSc2ncnc3scc(-c4ccccc4)c23)c(C(=O)O)cc1OC,"inconclusive: 44.7 µM [inhibitor, partial curve, poor fit]",
CCOc1cc(/C=C(\C#N)C(=O)Nc2ccc(OC)cc2)ccc1OCc1cc(=O)n2nc(CC)sc2n1,"inconclusive: 100 µM [inhibitor, partial curve, poor fit]",
O=C(Nc1ccc(Nc2ccncc2)cc1)c1ccc(Nc2ccnc3ccc([N+](=O)[O-])cc23)cc1[N+](=O)[O-],"inconclusive: 17.8 µM [inhibitor, full curve, poor fit]",
COc1ccc([C@H]2CC(=O)C=C(c3ccc4ccccc4c3)C2)cc1OC,"inconclusive: 79.4 µM [inhibitor, partial curve, poor fit]",
Cc1ccc(-c2nc3scc(CCNS(=O)(=O)c4ccc(Oc5ccccc5)cc4)n3n2)cc1,,inactive: 6.73%
CC(C)c1cc(N=O)cc(C(C)C)c1O,"inconclusive: 79.4 µM [inhibitor, partial curve, poor fit]",
O=C(O)CCCCCN1C(=O)c2ccc(C(=O)O)cc2C1=O,,inactive: -9.65%
O=C(NNC(=O)c1ccccc1Br)c1ccc2nc[nH]c2c1,active: 22.4 µM,
O=C(CSc1ccsc1[N+](=O)[O-])NCc1ccccc1,active: 79.4 µM,
COC/C=C/C1=CC2=CC(=O)C(C)(OC(=O)c3cnc4ccccc4n3)C(=O)C2=CN1Cc1ccccc1 (stereo not given),active: 28.2 µM,
CCN(C(=O)Cc1cccs1)c1nnc(-c2cccnc2)s1,"inconclusive: 25.1 µM [inhibitor, partial curve, poor fit]",
CC1(C)Cc2ccccc2-c2nnc(-c3cccc(O)c3)n21,"inconclusive: 89.1 µM [inhibitor, partial curve, poor fit]",
COc1cccc(NC(=O)CN(C)C(=O)c2ccc(COc3ccccc3)cc2)c1,"inconclusive: 50.1 µM [inhibitor, partial curve, poor fit]",
COc1ccccc1CCNC(=O)c1ccc2nc[nH]c2c1,"inconclusive: 56.2 µM [inhibitor, partial curve]",
COc1ccc(-c2ccnc3c2c(=O)n(C)c(=O)n3C)cc1OC,,inactive: 5.23%
N#Cc1c(SCC(=O)Nc2nc3ccccc3s2)sc2c(O)cc(=O)[nH]c12,active: 4.47 µM,
O=C(CN1C(=O)/C(=C/c2ccco2)SC1=S)Nc1ccc(O)c(C(=O)O)c1,"inconclusive: 0.708 µM [inhibitor, full curve, poor fit]",
COc1cc(OC)cc(C(=O)NCC(C)NC(=O)c2cc(OC)cc(OC)c2)c1 (stereo not given),"inconclusive: 56.2 µM [inhibitor, partial curve, poor fit]",
Cc1ccc(NC(=O)CSc2ncccc2C(=O)Oc2cccc([N+](=O)[O-])c2)cc1Cl,"inconclusive: 7.94 µM [inhibitor, partial curve, poor fit]",
COc1cccc(NC(=O)Cn2c(=O)n(Cc3nc(-c4ccccc4)no3)c(=O)c3ccccc32)c1,,inactive: -19.1%

SMILES,Potency,"activity change, negative = inhibition"
CCOc1ccc(-c2cc(C)n3nc(C(=O)Nc4cc(Cl)ccc4O)cc3n2)cc1,"inconclusive: 89.1 µM [inhibitor, single point]",
N#Cc1ccccc1OCC(=O)Nc1nc(-c2ccccn2)cs1,"inconclusive: 20 µM [inhibitor, full curve, poor fit]",
COc1ccc(NC(=O)c2ccccc2NC(=O)CN2CCCCCC2)cc1,"inconclusive: 89.1 µM [inhibitor, partial curve, poor fit]",
O=C(O)CCc1nn2cc(-c3ccccc3)nc2[nH]c1=O,"inconclusive: 22.4 µM [inhibitor, partial curve, poor fit]",
NC(=O)CSc1nc2scc(-c3ccco3)c2c(=O)n1-c1ccccc1,active: 79.4 µM,
Cc1ccc(-c2nn3c(-c4ccco4)nnc3c3ccccc23)cc1S(=O)(=O)NCC1CCCO1 (stereo not given),"inconclusive: 14.1 µM [inhibitor, partial curve, poor fit]",
CCC(C)(C(=O)Nc1c(C)cccc1C)N(C)C(=O)c1ccc2ccccc2n1 (stereo not given),"inconclusive: 100 µM [inhibitor, single point]",
CCn1c(CNc2nc(-c3ccccc3)cs2)nnc1SCC(=O)NCc1ccco1,"inconclusive: 39.8 µM [inhibitor, partial curve, poor fit]",
O=C(O)CC/C(=N/NC(=O)c1cn(-c2ccccc2)nc1-c1ccccc1)C(=O)O,,inactive: -9.6%
N#Cc1c(-c2ccco2)cc(-c2cccnc2)nc1N,"inconclusive: 100 µM [inhibitor, single point]",
Cc1nonc1-c1csc(N)n1,"inconclusive: 20 µM [inhibitor, partial curve, poor fit]",
C#CCNC(=O)C1=C[C@H](c2ccc(C#C)cc2)C[C@H](OCc2ccc(CO)cc2)O1,active: 44.7 µM,
CN(C)/C=C1\N=C(c2ccc3c(c2)OCO3)OC1=O,"inconclusive: 39.8 µM [inhibitor, partial curve, poor fit]",
O=c1oc2ccc3ccccc3c2c2c1SC(C(F)(F)F)C2 (stereo not given),"inconclusive: 17.8 µM [inhibitor, partial curve, poor fit]",
Cc1ccc(C(=O)CCC(=O)Nc2ncccc2C)cc1,"inconclusive: 22.4 µM [inhibitor, full curve, poor fit]",
Cc1cc2occ(CC(=O)N(C)CC(=O)Nc3ccccc3C(F)(F)F)c2cc1C,"inconclusive: 89.1 µM [inhibitor, partial curve, poor fit]",
CCCCCCNS(=O)(=O)c1ccc(NC(=O)C2CCCO2)cc1 (stereo not given),"inconclusive: 31.6 µM [inhibitor, partial curve, poor fit]",
Cc1ccc(CNC(=O)CSc2cc(C)[nH]c(=O)n2)cc1,"inconclusive: 89.1 µM [inhibitor, single point]",
Cc1nn(-c2ccccc2)c2nc(C3CC3)cc(C(=O)Nc3ccccc3F)c12,,inactive: -16.5%
COc1ccc(NS(=O)(=O)c2cccc(C(=O)NN=Cc3cc(Br)c(O)c(Br)c3)c2)cc1,active: 44.7 µM,
